Experimental data as given in PubChem BioAssay AID463173 (ICCB-Longwood Screening Facility, Harvard Medical School, 2010).
The campaign covered roughly 52,000 compounds. About 4,300 (8.3%) were called active. Rule as the data show it: active = survival mostly below about 52% (no sharp cut-off); inactive = mostly above about 56%. This is one part of the list.

tested on: DeltatarO mutant; assay: S. aureus survival, RN4220 and DeltatarO strains – OD600, teichoic acid synthesis inhibitors, primary screen (AID 463173); conditions: S. aureus RN4220 wild type/DeltatarO growth, OD600, 18 h, hits give low values, screened at 18.75 µg/mL (by protocol)

SMILES	survival
CN(C)c1ccc(NC(=O)Cn2cc(S(=O)(=O)Cc3ccccc3Cl)c3ccccc32)cc1	inactive: 76%
CCCCN(C)c1nnc(NC(=O)Nc2ccc(Br)c(C)c2)s1	inactive: 87%
CCn1cc2nc(SCC(=O)Nc3ccc(OC)cc3OC)n(Cc3ccc(Cl)cc3)c(=O)c2n1	inactive: 80%
CCOCCc1nn2c(=O)cc(COC(=O)c3ccccc3NC(=O)c3ccc(C)cc3)nc2s1	inactive: 81%
CCOc1ccc(NC(=O)Cn2cc(C(=O)c3ccc(C)cc3)c(=O)c3cc4c(cc32)OCO4)cc1	inactive: 70%
CCc1ccc(CN(Cc2ccco2)C(=O)c2cc(-c3ccc(C)c(F)c3)on2)cc1	inactive: 100%
Cc1ccc(N(Cc2cccs2)C(=O)c2ccccc2[N+](=O)[O-])cc1	inactive: 74%
CCC(C)NC(=O)Cn1c(=O)c2cccn2c2ccc(F)cc21 (stereo not given)	inactive: 82%
CCCOc1cccc(C(=O)N2CCCCC2CCN2CCCCC2)c1 (stereo not given)	inactive: 79%
O=C(Nc1ccc(F)cc1Cl)c1cnc(N2CCOCC2)c2ccccc12	inactive: 104%
Cc1ccccc1Cn1c(C)c(CNCCCc2ccccc2)c(C(=O)O)c1C	inactive: 78%
COc1ccc(C2C=C(c3ccc(Cl)cc3)Nc3nc(NC(=O)CCC(=O)O)nn32)cc1 (stereo not given)	inactive: 74%
Cc1ccccc1Nc1c(-c2c[nH]c3ccccc23)nc2cccc(C)n12	inactive: 144%
Cc1ccc(S(=O)(=O)N2CCc3cc(C(=O)Nc4c(C)cccc4C(C)C)ccc32)cc1	inactive: 77%
COc1cccc(CC(=O)Nc2ccc3nc(Nc4cccc(C(F)(F)F)c4)cc(C)c3c2)c1	active: 25%
COC(=O)c1cc2oc3ccccc3c2n1CC(=O)Nc1ccc(F)c(Cl)c1	inactive: 60%
CCOc1ccc(CCNC(=O)c2nn(C)c3c2CSc2ccc(C)cc2-3)cc1OCC	inactive: 57%
Cc1cccc(Cn2c(CN3CCCC(C)C3)nc3c2c(=O)n(C)c(=O)n3C)c1 (stereo not given)	inactive: 73%
COc1cccc(CNC(=O)c2cc(=O)[nH]c3ccc(S(=O)(=O)N4CCCC4)cc23)c1	inactive: 60%
CS(=O)(=O)N(CC(=O)N1CCCCC1)C1CCCCC1	inactive: 85%
COc1ccc(CNC(=O)CC2Oc3ccc(C)cc3NC2=O)cc1 (stereo not given)	inactive: 81%
CC1Cc2cc(S(=O)(=O)NCc3ccccc3)ccc2N1C(=O)C1CCC1 (stereo not given)	inactive: 90%
O=C(NCc1ccccc1)c1nc(-c2ccc(Cl)cc2)n2c1CCCCC2	inactive: 99%

SMILES	survival
COCCCNC(=O)c1ccc(-n2c(-c3ccccc3)cc3c2CCCCC3)cc1	active: 39%
O=C(CSc1nc2ccccc2n1CC(=O)N1CCCC1)N1CCCCC1	inactive: 85%
Clc1ccc2nc(-c3cccs3)c(Nc3ccc4c(c3)OCCO4)n2c1	inactive: 101%
CCOC(=O)c1cc(OC(=O)c2cc(OC)cc(OC)c2)n(-c2ccccc2)n1	inactive: 62%
CCc1nonc1NC(=O)c1oc2ccc(Cl)cc2c1C	inactive: 74%
Cc1ccc(Cl)cc1NC(=O)Cn1c(SCC(=O)NCc2ccccc2)nc2ccccc21	inactive: 96%
CCCCSc1nc(-c2cccc(OC)c2)nc2c1Cc1c(CO)cnc(C)c1O2	inactive: 81%
O=C(CSc1nnc(-c2ccncc2)o1)Oc1ccccc1	inactive: 82%
Cc1ccc(NC(=O)c2cnc3cc(C)ccn3c2=O)c(C)c1	inactive: 98%
COc1ccc(-c2cc(C(=O)Nc3cc(C)nn3-c3ccccc3)no2)cc1OC	inactive: 74%
Cc1ccc2[nH]c(C)c(CN3CC(C)OC(C)C3)c(=O)c2c1 (stereo not given)	inactive: 65%
COc1ccc(NC(=O)C2Cc3ccccc3CN2S(=O)(=O)c2ccccc2)cc1OC (stereo not given)	inactive: 94%
CCc1cccc(-n2c(=O)c3cccnc3n2CC(=O)Nc2ccc(OC)c(Cl)c2)c1	inactive: 104%
CCc1ccccc1NC(=O)CCCn1c(=O)c2cccn2c2ccccc21	inactive: 79%
COc1cccc(-n2c(SCC(N)=O)nc3c(oc4ccccc43)c2=O)c1	inactive: 67%
Cc1cc(C)nc(Sc2ccccc2)n1	inactive: 76%
CC1CCCCN1C(=O)CN1CCSc2ccccc21 (stereo not given)	inactive: 74%
CCC(=O)Nc1ccc(CC)cc1-c1nc2ccccc2n(CC(=O)c2ccc(OC)cc2)c1=O	inactive: 70%
Cc1cc(/C=C(/C#N)C(=O)NCc2ccccc2)c(C)n1-c1cccnc1	inactive: 56%
Cc1ccc(-c2cc(NC(=O)c3cccc(C)c3)on2)cc1	inactive: 78%
Cc1c(Cl)cccc1NC(=O)c1oc2ccc(S(=O)(=O)N3CCC4(CC3)OCCO4)cc2c1C	inactive: 107%
O=S(=O)(NCc1ccc(F)cc1)c1ccc2[nH]c3c(c2c1)CCCC3	active: -1%
Cc1ccc(S(=O)(=O)N2CCc3cc(C(=O)Nc4ccc(Cl)cc4C)ccc32)cc1	inactive: 63%

SMILES	survival
CCCc1nn2c(=O)cc(COC(=O)c3ccc(NC(=O)COc4ccccc4F)cc3)nc2s1	inactive: 117%
O=C(CCCOc1ccccc1)Nc1ncn[nH]1	inactive: 80%
CC1Cc2cc(S(=O)(=O)NCc3ccc(Cl)cc3)ccc2N1C(=O)C1CCC1 (stereo not given)	inactive: 67%
CSc1nc(-c2ccc(Cl)cc2)nn1S(=O)(=O)c1ccc(NC(C)=O)cc1	active: 43%
CC(C)c1ccc(N2C(=O)N(Cc3cccc([N+](=O)[O-])c3)c3ccccc3S2(=O)=O)cc1	inactive: 94%
CCOc1ccc(NC(=O)[C@@H](c2ccccc2)N2Cc3ccccc3C2=O)cc1	inactive: 70%
COc1ccc(NS(=O)(=O)c2ccc3c(c2)[C@H]2C=CC[C@H]2[C@@H](c2ccc(C(=O)O)cc2)N3)cc1	inactive: 72%
Cc1noc(-c2ccc(-c3noc(-c4ccc([N+](=O)[O-])c(C)c4)n3)cc2)n1	inactive: 54%
Cc1cc(S(=O)(=O)Nc2ccc3oc4c(c3c2)CCCC4)ccc1Cl	active: 41%
O=C1CN(C(=O)Cc2ccccc2)C(c2ccc(F)cc2)c2cc(Br)ccc2N1 (stereo not given)	inactive: 61%
Cc1ccc(Cl)cc1N1CCN(C(=O)c2noc3c2CCCC3)CC1	inactive: 71%
CC(=O)OCC1OC(OC(C)=O)C(NC(=O)C(C)C)C(OC(C)=O)C1OC(C)=O (stereo not given)	inactive: 108%
O=C(CSc1nnc(-c2ccccc2)o1)NC1CCCC1	inactive: 89%
Cc1ccc(-n2nnnc2CNC(=O)C2CC(=O)N(c3ccccc3)C2)cc1C (stereo not given)	inactive: 72%
COc1ccc(Cl)cc1NC(=O)Cn1nnc2sc(-c3ccccc3)cc2c1=O	inactive: 55%
COc1cc(C2C(C(=O)Nc3ccccc3C)=C(C)Nc3nc(SCc4cc(C)ccc4C)nn32)ccc1O (stereo not given)	inactive: 105%
CCN(CC)c1ccc(NC(=O)CCc2c(C)nc3ncnn3c2C)c(C)c1	inactive: 115%
Cc1cccn2c(=O)c(C(=O)N3CCN(c4ccc(Cl)cc4)CC3)cnc12	inactive: 95%
O=S(=O)(NCCc1csc2nc(-c3ccccc3)nn12)c1ccc(Oc2ccccc2)cc1	inactive: 64%
Cn1cc(S(=O)(=O)c2ccccc2)c(=O)c2cc(F)c(N3CCCC3)cc21	inactive: 123%
O=C(NCc1ccccc1)c1ccc(CSc2nc3cccnc3n2Cc2ccccc2)cc1	inactive: 102%
CCc1cccc(C)c1NC(=O)c1cc2ccccc2o1	inactive: 129%
COc1ccc(NC(=O)Cn2cc(S(=O)(=O)c3ccccc3)c(=O)c3cc(C)ccc32)cc1Cl	inactive: 76%

SMILES	survival
COc1cccc(N2CCN(C(=O)c3ccc4c(Cl)c5c(nc4c3)CCCC5)CC2)c1	inactive: 88%
CCc1ccc(NC(=O)CSC2=Nc3ccccc3C3=NC(CC(=O)NCc4cccs4)C(=O)N23)cc1 (stereo not given)	inactive: 99%
Cc1cc2c(cc3c(SCc4cccc(Cl)c4)nnc(C)n32)o1	inactive: 56%
CCC(=O)N1CCc2cc(Br)cc(S(=O)(=O)N3CCC(C(=O)Nc4cccc(C)c4)CC3)c21	inactive: 80%
COc1ccc(CCNC(=O)c2cc3c(=O)n4ccccc4nc3n2C)cc1	inactive: 61%
CCCN1CC=C2C(C#N)=C(N)C(C#N)(C#N)C(c3cccc(OC)c3)C2C1 (stereo not given)	inactive: 95%
O=C(CSc1nnc2[nH]c(=O)cc(-c3ccccc3)n12)Nc1ccccc1C(F)(F)F	inactive: 72%
Cc1cccc(NC(=O)Nc2ccc(C)c(C)c2)n1	inactive: 96%
Cc1cc(OCC(=O)Nc2ccc(C(=O)OC3CCCCC3)cc2)ccc1Cl	inactive: 76%
CNC(=O)c1cccc(-n2c(C)nc3cccnc32)c1C	inactive: 81%
O=c1c2cccnc2n(Cc2ccc(Cl)cc2)c(=O)n1Cc1ccc(F)cc1	inactive: 87%
CC(=O)c1ccc(NC(=O)CSc2nc3c(=O)n(C)c(=O)n(C)c3n2C)cc1	inactive: 84%
O=c1[nH]c(C2CCN(S(=O)(=O)Cc3ccccc3)CC2)nc2c1nnn2Cc1cccc(Cl)c1	inactive: 67%
Cc1cc(N2CCN(C)CC2)nc2ccc(NC(=O)c3ccccc3F)cc12	inactive: 122%
CCCC(=O)N1CCCC(c2nc(-c3ccc(C(C)C)cc3)no2)C1 (stereo not given)	inactive: 103%
CC(=O)Nc1ccc(S(=O)(=O)N2CCN(c3ccc(C)c(C)c3)CC2)cc1	inactive: 94%
CC(C)NC(=O)c1ccc(Cl)cc1Cl	inactive: 73%
Cc1cccc(Cn2c(CN3CCC(C(=O)NCc4ccccc4Cl)CC3)cc3ccccc32)c1	inactive: 88%
O=C(O)CCSc1nc2ccccc2o1	inactive: 87%
COc1ccc(Cn2c(CNS(=O)(=O)c3ccc(Cl)s3)nc3cccnc32)cc1	inactive: 94%
Cc1ccc(C(=O)Nc2cc(-c3nc4cc(Cl)ccc4o3)ccc2C)c(C)c1	inactive: 85%
